The source of these data is the RNAGym collection of RNA variant scans (doi:10.7554/elife.90254).

B1: LINE1-full (parent)
chain: UACGUAGGUGGUUUUCCCCUGAUAGUGCUAAGGGGGCCUGGAAGUUUGGACUGGGCAGAGCUCAACACAGCGUGGCAAAGUGGCUGUGGCUAGACUGCCUCUCUGGAUUCCUCGUCACUCAGCAGGGCAUCUCUGAGAGAAAUGCC

Read counts are not given, so values of variants with three or more changes are uncertain.

In the series the parent is B1. The series can be described thus: self-cleavage, relative activity (ratio to wild type); higher = more cleavage; in vitro, sequencing; the parent is a self-cleaving ribozyme.
For the variant A64C A69G A141G, the self-cleavage came to 0.08.
As to U62A U87A C113U, the self-cleavage was 0.09.
For the variant A64U C76U A121U A136G U143A, the self-cleavage came out at 1.17.
As to C61U A129G A141G, the self-cleavage is 0.05.
As for U62C U73A U91A, the self-cleavage worked out at 0.03.
With A65G U81C C118U the figure was 0; with A65G U96C C99U U115C, 0.32; with A64U A92U U100C, 0.18.
Under A64G A65G A69G stands 0; under C61U A138G A141G, 0.05; under A65U A107C U115A, 0.21.
With U62C U87C A136G, the self-cleavage is 0.
On to A64G A79G A138U, for which the self-cleavage came to 0.18.
U62A U91C U108C: the self-cleavage turned out to be 0.09.
Under A64G U115A A140G stands 0.21; under A64G U85C U87A A107G, 0.3; under U62C A65G A94G, 0.
With A59U U108C A136G the figure was 0.2; with A65G G89U U108C, 0.02; with U62A A64C U73C C113U, 0.07.
Turning to C66U A69G U115C A136G, the self-cleavage is 0.05.
On to A64C C66A U81A A138G, for which the self-cleavage was 0.02.
With C61A A64G A78U C120U the figure was 0.05; with A59U U62C A92G, 0.11.
Consider A65G U85C U134A, for which the self-cleavage is 0.12.
Under A65G A124G U130C stands 0; under A64G A136G A142G, 0.37.
With A65U U96A C103U G135A A140U the figure was 0.08.
With C63A U104C U108A the figure was 0.07; with A65U U85A U132C A140G, 0.03.
Regarding A65G A92G A141G, the self-cleavage amounted to 0.12.
With U62C A94G A140G the figure was 0.
For A64G U119C A121G, the self-cleavage came out at 0.
With U62C U91C G125C, the self-cleavage is 0.
Take C63U A79G A121U A140G: the self-cleavage was determined as 0.29.
With A65G A69U U119C A136U A140G the figure was 0.07.
Under U62C A78G A136U stands 0.
Consider A59U U100C U134C, for which the self-cleavage came out at 1.5.
As for U62G A69G U108C A141G, the self-cleavage came out at 0.
Under U62C A140G A141G stands 0.01; under U62A U73A U81A, 0.04; under A64G C118U A121G, 0.22.
U62C A65U U109C: the self-cleavage is 0.09.
In the case of G60A U102A U108C U115C C120U C128A A142G, the self-cleavage turned out to be 0.
In the case of C66U U87A U91C A142G, the self-cleavage was determined as 0.01.
As for A65G U115A G127A U132C A141G, the self-cleavage was 0.04.
For C61A U100A A124G U130C, the self-cleavage came to 0.
Regarding C61A A64G U104A G114A, the self-cleavage was 0.05.
Turning to U62C A79G A94U A121U, the self-cleavage turned out to be 0.05.
As to C61A U96C C113U U115C, the self-cleavage came to 0.02.
With A65G A79U U108C, the self-cleavage was determined as 0.14.
Turning to U62A A92G U108C, the self-cleavage came out at 0.04.
As for A64U A78G A138G, the self-cleavage came to 0.28.
Take G60A C113U U130G: the self-cleavage is 0.03.
For the variant A64U A107U A138G, the self-cleavage is 0.54.
On to U62C U73A U132C, for which the self-cleavage turned out to be 0.
On to C61U A77U U81A U108C A124G U132C, for which the self-cleavage came out at 0.01.
Take A59U U73A U102C A136U: the self-cleavage is 0.89.
Consider A65U A67G A77U C84U, for which the self-cleavage is 0.06.
Turning to U62C A94C A142G, the self-cleavage came out at 0.
For G60A A77G A129U A138G, the self-cleavage amounted to 0.04.
For the variant A65U U109A G122A U132A, the self-cleavage turned out to be 0.09.
As to A64G A140G A141G, the self-cleavage worked out at 0.
As to U62C C71U U85C A129U A136G, the self-cleavage is 0.01.
Consider C61A A78G U134G, for which the self-cleavage came out at 0.04.
With U62C A67G A121U the figure was 0; with A64U A69U U119C, 0.05.
In the case of A59U U62C U85C U87A, the self-cleavage came out at 0.
On to A64G A107U U112A A140G U143A, for which the self-cleavage was found to be 0.29.
On to A64G A140G A142G, for which the self-cleavage is 0.09.
With A65C U73A U104A U119C the figure was 0.02; with A59U U73A U96C, 0.11.
With U62C A124G U130C the figure was 0.1; with C61U U104C U115C C116U, 0.1; with U62C A107G A141G, 0.
As for A64G U73C U81A A121U, the self-cleavage is 0.61.
Under A65G U104A U134C A141G stands 0.12.
In the case of A65G U109A A141U, the self-cleavage was 0.
Consider U62A A77G A94U, for which the self-cleavage came out at 0.05.
Take U62C U96A A142U: the self-cleavage was 0.03.
With A65G U85C U91A U100C, the self-cleavage is 0.
Under G60A A65G U73A C145U stands 0; under A64G U81A A141G, 0.38; under U62C U102A A138G, 0.
On to C63U A67G A69U U102C, for which the self-cleavage was found to be 0.04.
As to C61U A64U G127U, the self-cleavage was determined as 0.03.
With U62C A94G U96C C113U the figure was 0; with A65G U108C A129U U132A, 0.04; with U62C C71U A141G, 0.03.
As for G60U C84U U85C U91A U100A, the self-cleavage came out at 0.04.
For the variant A64U A107U U109C U112C, the self-cleavage came out at 1.31.
In the case of U62C A69U U130C, the self-cleavage amounted to 0.01.
With U62C A69U U132C A138G the figure was 0.
As to A59U G89A U134A, the self-cleavage is 0.02.
With A64U G72U A94U A136U, the self-cleavage was found to be 0.21.
In the case of U62C A65U A136G A142G, the self-cleavage came out at 0.
Under A64U U85A U112C A129G C146A stands 0.05; under A64U A94G A141G, 0.15.
In the case of U62C A77G C84A U85G A94G U132C A141G, the self-cleavage was 0.
Under U62C A64U A121U stands 0.07; under G60U G70C U112A A121G C133A, 0.03.
Under A64C A69G A129G stands 0.18; under G60A A77C A78U U81C U100C A124U, 0.
As for U62A A78G U115C, the self-cleavage came to 0.06.
G60A U62A A78G U85C U104A A121U: the self-cleavage came out at 0.04.
Consider U62A A107G U115C, for which the self-cleavage was 0.
As for A64G A77U C145G, the self-cleavage turned out to be 0.21.
Consider U62C A79G A141G, for which the self-cleavage was determined as 0.07.
On to U62C U87C A138G, for which the self-cleavage came out at 0.29.
As to A64U U73G U87A A107G A117U, the self-cleavage turned out to be 0.01.
Turning to A64C U96C U115C, the self-cleavage was determined as 0.
Take U62C A69G U134A: the self-cleavage is 0.11.
Regarding A65G A78G U100A A140G, the self-cleavage was determined as 0.
Consider A65C C71U U87C, for which the self-cleavage stood at 0.
Take A64U U108A U119C U134A A138G: the self-cleavage turned out to be 0.55.
Under A65U U115A A140G stands 0.14.
With A64U U73C A129G the figure was 0.79; with U62G U96C C113A, 0; with U62C A67G G97A, 0.06.
As to A64G A77G A117G, the self-cleavage is 0.35.
With A64U U119A U143A, the self-cleavage is 0.56.
C66U U96C A136G: the self-cleavage worked out at 0.04.
As to A64G A78G A94G, the self-cleavage came to 0.
Take U62C U102A U115C: the self-cleavage worked out at 0.23.
Turning to A65U C90A C99A A136U A138G, the self-cleavage stood at 0.02.
Turning to U62C A65U U96A A129G, the self-cleavage is 0.08.
In the case of A65G U73A U104C A142G, the self-cleavage came to 0.
Regarding U62C U109A A141G, the self-cleavage worked out at 0.04.
Turning to A64U G93A A94G A117G U132C, the self-cleavage turned out to be 0.
A65G A77G U87A U119G: the self-cleavage was 0.
Regarding U62C U109C A138U, the self-cleavage was 0.05.
As to U62A A67G A121G U130A A141G, the self-cleavage came out at 0.
Turning to A64G U73A U81A, the self-cleavage was found to be 0.18.
Turning to A64G U109C A140G, the self-cleavage is 0.31.
With A65U U73A U115C, the self-cleavage is 0.13.
For the variant A65G U115C A140G, the self-cleavage came out at 0.08.
For the variant A64U A94G A136G, the self-cleavage was found to be 0.09.
In the case of A65U U102C U109A, the self-cleavage was 0.09.
For the variant U62C U108C C111U, the self-cleavage came out at 0.06.
U62G U134A A138G: the self-cleavage is 0.14.
As to A59U G97U U119C, the self-cleavage turned out to be 0.08.
Under A64G G82A U100C C128U A140G stands 0.22; under A64G G70A A136G, 0.11.
As for U62C U104G A121U A124G U134A, the self-cleavage was 0.23.
Turning to U62C A64G U134A, the self-cleavage is 0.06.
For the variant U62C A65G U119A, the self-cleavage is 0.
Under C61U U134C G144A stands 0.04.
Take U62C A79G G114A: the self-cleavage is 0.44.
Turning to C66U U91C U132A A140G, the self-cleavage was found to be 0.03.
On to A64G U119A A141G U143C, for which the self-cleavage was determined as 0.49.
In the case of U62C A129G U132A, the self-cleavage is 0.07.
As for A64G U132C A138U, the self-cleavage stood at 0.21.
On to A64G U73C U85A A141G, for which the self-cleavage was 0.
For the variant A59U U115C U130C, the self-cleavage was 0.62.
As to A64U U115C C146A, the self-cleavage stood at 0.61.
In the case of G60A U73C U112C, the self-cleavage came out at 0.02.
A64G U96A A121G: the self-cleavage came to 0.04.
Under U62C U87A A94G U100C stands 0; under A65U U100A C118U U143C, 0.06; under C63U U81A U119A, 0.54.
Turning to A64G A77G U132C, the self-cleavage came out at 0.
Take U62C A69U U104C A107G: the self-cleavage was 0.
Turning to A64G U104C U109C, the self-cleavage was determined as 0.
Under A65U U108C A138G A142C stands 0.05.
Under A65U G105U U115C G127A stands 0.22.
U62A C63U A69U U102C: the self-cleavage came out at 0.04.
As to A64U U73A A79G, the self-cleavage was 0.49.
